Test results taken from PubChem BioAssay (Tox21).
The shares of active, inactive and inconclusive entries below differ from those in the screen. Potencies of inconclusive entries are left out as doubtful fits. More than one record can exist for a structure, and the calls need not agree. Activity calls are given as the source filed them. Calls follow the shape of the dose curve; as a rule, active = well fitted curve in the direction sought with a large enough effect in the repeat runs; inconclusive = weak or mixed curves; inactive = no such curve, though single readings can be large; an effect the other way counts as inactive or inconclusive.

Experiment: qHTS assay to identify small molecule HDAC inhibitors (AID 1259364);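 also: wild-type HCT-116 cells with endogenous class I/II HDAC activity; nearly all actives have a fitted effect of over 45% in size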; as to activity change, negative = inhibition: top concentration of the series differs between compounds
Conditions: HCT-116 HDAC-Glo I/II luminescence, 2 h; series mostly up to 92.4 µM; activity change, negative = inhibition: at the top concentration
Summary of the method: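 After a 2 hr compound incubation (37C, 5% CO2), HCT-116 cells seeded at 1,500/well the day before received HDAC-Glo reagent; signal read as luminescence after 30 min at room temperature.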
% is scaled to controls: 0 for no effect and ±100 for the full control effect; potency is read from the fitted curve at half-maximal effect; tags tell the direction and shape of the fitted curve.

| SMILES | activity change, negative = inhibition | Potency |
| --- | --- | --- |
| CCCCCCCCCOC(C)=O | inactive: -0.32% | – |
| COc1cc2nc(N3CCN(C(=O)C4CCCO4)CC3)nc(N)c2cc1OC (stereo unspecified) | – | active: 3.35 µM |
| CCO[Si](CCCCl)(OCC)OCC | inactive: 2.77% | – |
| COc1ccc2cc(CCC(C)=O)ccc2c1 | – | inconclusive [inhibitor, partial curve] |
| CCCCNc1ccc(NCCCC)c2c1C(=O)c1ccccc1C2=O | – | inconclusive [inhibitor, partial curve, poor fit] |
| COS(C)(=O)=O | – | inactive |
| Cc1ccc(C#N)cc1 | inactive: -5.93% | – |
| O=C(c1ccc(O)cc1)c1ccc(O)c(O)c1O | – | inconclusive [inhibitor, partial curve, poor fit] |
| CC(C)(C)C(=O)C(Oc1ccc(Cl)cc1)n1ccnc1 (stereo unspecified) | inactive: 0.355% [at 42.5 µM] | – |
| CCCCCCCCCCCCC(=O)O | inactive: -4.27% | – |
| COc1cccc2sc(N)nc12 | – | inconclusive [inhibitor, partial curve, poor fit] |
| CC(C)C1OCCN1CCOC(=O)NCCCCCCNC(=O)OCCN1CCOC1C(C)C (stereo unspecified) | inactive: -1.29% | – |
| O=C(Oc1ccccc1)c1ccccc1 | – | inconclusive [inhibitor] |

Experiment: qHTS assay to identify small molecule HDAC inhibitors - cell viability counter screen (AID 1259365); also: nearly all actives have a fitted effect of over 50% in size
Conditions: HCT-116 viability, CellTiter-Glo ATP luminescence, 2 h; series mostly up to 92.4 µM; activity change, negative = cytotoxicity: at the top concentration
Summary of the method: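 Following a 2hr exposure of overnight-plated wild-type HCT-116 cells to DMSO-delivered compounds, CellTiter-Glo was added and luminescence recorded after 30min at room temperature.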

| SMILES | Potency | activity change, negative = cytotoxicity |
| --- | --- | --- |
| NC[C@H](O)c1ccc(O)c(O)c1 | inactive | – |
| CCCCCC(=O)OCCc1ccccc1 | – | inactive: -0.687% |
| CCCCNc1ccc(NCCCC)c2c1C(=O)c1ccccc1C2=O | inconclusive [cytotoxic, partial curve] | – |
| Oc1ccc(C(O)CNCCCCCCNCC(O)c2ccc(O)c(O)c2)cc1O (stereo unspecified) | – | inactive: -0.0911% [at 42.5 µM] |
| CN(C)CCOCCO | – | inactive: 0.6% |
| C(/C=C/C=C/Nc1ccccc1)=Nc1ccccc1 | – | inactive: 1.58% |
| CC(C)C(=O)OCc1cccc(OC(=O)[C@@H]2N3C(=O)[C@@H](NC(=O)Cc4ccccc4)[C@H]3SC2(C)C)c1 | inconclusive [rising, single point] | – |

Experiment: qHTS assay to identify small molecule agonists of the sonic hedgehog signaling (Shh) pathway - cell viability counter screen (AID 1259366); also: nearly all actives have a fitted effect of over 50% in size
Conditions: NIH/3T3 Gli1-Luc viability, CellTiter-Fluor, 24 h; series mostly up to 92.4 µM; viability change, negative = cytotoxic: at the top concentration
Summary of the method: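 After a 4hr attachment at 37C, NIH/3T3 cells bearing an integrated Gli1-driven luciferase reporter were dosed with compounds. Treatment lasted 24hr, with the final hour including CellTiter-Fluor for a fluorescence viability measurement.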

| SMILES | viability change, negative = cytotoxic | Potency |
| --- | --- | --- |
| CCN1CCCC1CN (stereo unspecified) | inactive: -1.96% [at 42.5 µM] | – |
| CN(C)CCN(Cc1ccc(Cl)cc1)c1ccccn1 | – | inconclusive [cytotoxic, full curve, poor fit] |
| NC[C@H](O)c1ccc(O)c(O)c1 | – | inconclusive [cytotoxic, partial curve, poor fit] |
| Cc1ccc(S(=O)(=O)N=C=O)cc1 | – | active: 16.9 µM |
| Cn1cnc2c(F)c(Nc3ccc(Br)cc3Cl)c(C(=O)NOCCO)cc21 | – | inconclusive [cytotoxic, full curve] |
| O=C(O)c1cc(C(=O)O)c(C(=O)O)cc1C(=O)O | inactive: -2.23% | – |
| Nc1cc([N+](=O)[O-])cc(Cl)c1O | – | inconclusive [cytotoxic, partial curve, poor fit] |
| CCC(C)N (stereo unspecified) | inactive: 0.688% | – |
| NC(=O)COCCN1CCN(C(c2ccccc2)c2ccc(Cl)cc2)CC1 (stereo unspecified) | inactive: -0.518% [at 42.5 µM] | – |
| COc1ccc(C(=O)c2cccc(O)c2)c(OC)c1 | inactive: -14.7% | – |
| Cc1cc(OI)c(C(C)C)cc1-c1cc(C(C)C)c(OI)cc1C | inactive: 3.06% [at 42.5 µM] | – |
| Oc1ccc(C(O)CNCCCCCCNCC(O)c2ccc(O)c(O)c2)cc1O (stereo unspecified) | – | active: 8.41 µM |
| COc1cc2c(cc1OC)[C@@H]1CC(=O)[C@@H](CC(C)C)CN1CC2 | inactive: -0.327% [at 42.5 µM] | – |
| CC(C)Cc1nccs1 | inactive: 5.77% | – |
| CCCOCC(C)O (stereo unspecified) | – | inactive |
| C=C(C)C(=O)OCC(C)C | – | active: 27.7 µM |
| C=C(C)C1CCC(C)CC1O (stereo unspecified) | inactive: -1.05% | – |
| O=C(c1ccc(O)cc1)c1ccc(O)c(O)c1O | – | active: 30.8 µM |
| CC(=O)O[C@H]1C[C@@H]2CC[C@@]1(C)C2(C)C | inactive: -2.98% | – |
| CC[N+](CC)(CC(=O)Nc1c(C)cccc1C)Cc1ccccc1 (tested in a mixture with another compound) | inactive: 5.95% [at 42.5 µM] | – |
| [O-][n+]1cccc(/C(Cl)=N/OC[C@@H](O)CN2CCCCC2)c1 | inactive: -1.09% [at 42.5 µM] | – |
| N#C[C@@H]1CC(F)(F)CN1C(=O)CNC1CC2CCC(C1)N2c1ncccn1 (stereo partly specified) | – | inconclusive [cytotoxic, partial curve, poor fit] |
| CC(CCl)OC(C)CCl (stereo unspecified) | inactive: 1.67% | – |
| CC(C)C1OCCN1CCOC(=O)NCCCCCCNC(=O)OCCN1CCOC1C(C)C (stereo unspecified) | inactive: -0.496% | – |
| C[C@@H](c1ncncc1F)C(O)(Cn1cncn1)c1ccc(F)cc1F (stereo partly specified) | inactive: 2.41% [at 42.5 µM] | – |
| O=C(Oc1ccccc1)c1ccccc1 | – | inconclusive [rising, partial curve] |

Experiment: qHTS assay to identify small molecule antagonists of the sonic hedgehog signaling (Shh) pathway - cell viability counter screen (AID 1259367); also: nearly all actives have a fitted effect of over 55% in size
Conditions: NIH/3T3 Gli1-Luc viability, CellTiter-Fluor, 24 h; series mostly up to 92.4 µM; viability change, negative = cytotoxic: at the top concentration
Summary of the method: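 Cytotoxicity was assessed in parallel with Shh reporter activity by measuring live-cell protease fluorescence (CellTiter-Fluor) in NIH/3T3 cells stably carrying Gli1-Luc, treated with compound under conditioned medium stimulation for 23 hr plus 1 hr reagent incubation.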

| SMILES | viability change, negative = cytotoxic | Potency |
| --- | --- | --- |
| CN(C)CCOCCO | inactive: -0.284% | – |
| C(/C=C/C=C/Nc1ccccc1)=Nc1ccccc1 | – | inconclusive [rising, partial curve, poor fit] |
| O=C(c1ccc(O)cc1)c1ccc(O)c(O)c1O | – | inconclusive [cytotoxic, partial curve] |
| CCCCCCCCCCCCC(=O)O | – | inconclusive [rising, partial curve] |
| O=C(Oc1ccccc1)c1ccccc1 | – | inconclusive [rising, partial curve] |
